Source: the supplement of paper PMC11348887
Structures can show the parent of a compound that is named as a salt. Some of the results follow. Cut-off read from the data, not from the text of the source: active = -2 or less and inactive = the rest. Repeats are few or missing, and single values can be far off.

The molecules below were run on hPSC-derived cortical neurons (WA09) (assay: nuclei number (viability) z-score; higher = more surviving cells). Details: 5 µM; treatment: days 7-14 after plating, readout day 21.
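Note: nuclei counted from DAPI counterstain by automated high-content image analysis, four fields per well at ×20 in 384-well plates, with sequential b-score then z-score normalization.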

Compound | nuclei number (z-score)
O=C(NC[C@H](O)CO)c1ccncc1Nc1ccc(I)cc1F | inactive: -0.124
Cc1ccc(-n2nc(C(C)(C)C)cc2NC(=O)NCc2cc(F)ccc2Oc2ccc3c(cnn3CCO)c2)cc1 [Pexmetinib (ARRY-614)] | inactive: 0.341
Oc1ccc(-c2nc(-c3ccc(F)cc3)c(-c3ccncc3)[nH]2)cc1 | inactive: 0.0679
O=C(Nc1ccc(S(=O)(=O)Nc2ccccc2Cl)c(Cl)c1)c1ccccn1 | inactive: 5.08
Cc1ccc(C(=O)Nc2ccc(CN3CCN(C)CC3)c(C(F)(F)F)c2)cc1C#Cc1cnc2[nH]ncc2c1 | active: -3.86
Cc1ncc([N+](=O)[O-])n1CC(C)O (stereo not given) [Secnidazole] | inactive: 0.497
OCCn1cc(-c2cnc3nnn(Cc4ccc5ncccc5c4)c3n2)cn1 | inactive: 0.686
C[C@]12CCC(=O)C=C1[C@@H]1C[C@@H]1[C@H]1[C@@H]3[C@@H]4C[C@@H]4[C@@]4(CCC(=O)O4)[C@@]3(C)CC[C@@H]12 [Drospirenone] | inactive: 0.776
COc1ccc2cc([C@H](C)C(=O)O)ccc2c1 [Naproxen] | active: -2.12
N#Cc1cc(CN2CCC(Nc3ncnc4sc(Cl)cc34)CC2)ccc1F | inactive: -0.477
CC(=O)O/N=C1/C(c2c(O)[nH]c3cc(Br)ccc23)=Nc2ccccc21 [BIO-acetoxime] | inactive: -0.454
CCCN(CCC)CCc1cccc2c1CC(=O)N2 [Ropinirole HCl] | inactive: 0.781
O[C@H]1[C@H](O)[C@@H](O)[C@H](O)[C@@H](O)[C@H]1O [i-Inositol] | inactive: -0.617
COc1cccc2c1C(=O)c1c(O)c3c(c(O)c1C2=O)C[C@@](O)(C(=O)CO)C[C@@H]3O[C@H]1C[C@H](N)[C@@H](O)[C@H](C)O1 [Epirubicin HCl] | active: -3.92
CN1CCC(Nc2nc(Nc3ccc(Oc4ccccc4)cc3)c3c(=O)[nH]cc(Br)c3n2)CC1 | active: -5.46
CC(=O)O[C@H]1C(=O)[C@@]2(C)[C@H]([C@H](OC(=O)c3ccccc3)[C@]3(O)C[C@H](OC(=O)[C@H](O)[C@@H](NC(=O)c4ccccc4)c4ccccc4)C(C)=C1C3(C)C)[C@]1(OC(C)=O)CO[C@@H]1C[C@@H]2O [Paclitaxel] | inactive: -0.887
NC(=O)c1cccc(-c2cccc(OC(=O)NC3CCCCC3)c2)c1 | inactive: 0.506
CC(C)C[C@H](NC(=O)[C@H](Cc1ccccc1)C[C@@H](O)[C@H](Cc1ccccc1)NC(=O)OC(C)(C)C)C(=O)N[C@@H](Cc1ccccc1)C(N)=O | inactive: 0.852
COc1cc2nc(N3CCCC3)nc(NCCCCCN3CCCC3)c2cc1OC | active: -5.46
NC(=O)c1cnccn1 [Pyrazinamide] | inactive: -0.376
Nc1nc(N)c(N=O)c(OCC2CCCCC2)n1 | inactive: 3.93
Cn1cnc2c(F)c(Nc3ccc(Br)cc3F)c(C(=O)NOCCO)cc21 | inactive: -0.328
C#Cc1cccc(Nc2ncnc3cc(OCCOC)c(OCCO)cc23)c1 | inactive: 0.0333
CCCCCCCCCCCCCCCCn1cc[n+](Cc2ccccc2)c1C | active: -4.62

Compound | nuclei number (z-score)
Nc1ccc(-c2ccc3ncc4ccc(=O)n(-c5cccc(C(F)(F)F)c5)c4c3c2)cn1 [Torin 2] | inactive: -0.355
CSc1nc2cc(Cl)c(Oc3cccc(Cl)c3Cl)cc2[nH]1 [Triclabendazole] | inactive: -0.604
O=C(CCNNC(=O)c1ccncc1)NCc1ccccc1 [Nialamide] | inactive: -0.355
Cc1cnc(-c2ccccc2C(C)C)nc1NCc1ccc(-n2ccnn2)cc1 | inactive: -0.407
CNc1cc(-c2cccc(Cl)c2Cl)nc(N)n1 | inactive: 0.125
CCC(C)(Oc1ccc(C2(c3ccc(OC(C)(CC)C(=O)O)cc3)CCCCC2)cc1)C(=O)O (stereo not given) [Clinofibrate] | inactive: 0.299
C[C@@H](O[C@H]1OCCN(Cc2nn(P(=O)(O)O)c(=O)[nH]2)[C@H]1c1ccc(F)cc1)c1cc(C(F)(F)F)cc(C(F)(F)F)c1 [Fosaprepitant dimeglumine salt] | inactive: -0.538
c1nc2c(NC3CCCCC3)nc(Nc3ccc(N4CCOCC4)cc3)nc2[nH]1 [Reversine] | inactive: 0.0722
COc1cc2nccc(Oc3ccc(NC(=O)NC4CC4)c(Cl)c3)c2cc1C(N)=O [Lenvatinib (E7080)] | inactive: 0.366
COc1nc(OCc2cccc(-c3ccccc3)c2C)ccc1CNCCNC(C)=O [PD-1/PD-L1 inhibitor 2] | active: -2.97
CN1CCc2c(c3ccccc3n2Cc2ccc(C(=O)NO)cc2)C1 [Tubastatin A] | inactive: -0.234
CN1CCc2c(c3ccccc3n2Cc2ccc(C(=O)NO)cc2)C1 [Tubastatin A HCl] | inactive: 1.26
O=c1c(-n2ccnn2)c[nH]n1-c1cc(N2CCOCC2)ncn1 [Molidustat (BAY 85-3934)] | inactive: -0.557
CC[C@@H]1C(=O)OC[C@@H]1Cc1cncn1C [Pilocarpine HCl] | inactive: 2.72
Cc1cnc(-c2cc(N3CCN(C(=O)CCS(C)(=O)=O)CC3)ncc2Cl)c(C)c1 | inactive: -0.721
CC(C)(CO)c1cc2cc(NC(=O)C3(c4ccc5c(c4)OC(F)(F)O5)CC3)c(F)cc2n1C[C@@H](O)CO | inactive: 1.46
Cc1c(CN2CCN(C(=O)[C@H](C)O)CC2)sc2c(N3CCOCC3)nc(-c3cnc(N)nc3)nc12 | active: -2.7
N#CCNC(=O)c1ccc(-c2ccnc(Nc3ccc(N4CCOCC4)cc3)n2)cc1 | inactive: 0.598
OCc1c[nH]c2ccccc12 [Indole-3-carbinol] | inactive: 0.665
CS(=O)(=O)OCCCCOS(C)(=O)=O [Busulfan] | inactive: -0.832
Cc1c(NC(=O)c2cccnc2)c(=O)n(-c2ccccc2)n1C [Nifenazone] | inactive: -0.503
N#Cc1ccc(-c2csc(NN=C3CCCC3)n2)cc1 [Remodelin] | inactive: 0.145
O=C(/C=C/c1ccc(O)cc1)c1ccc(O)cc1O [Isoliquiritigenin] | inactive: 3.44
CC(C)NC[C@@H](O)COc1ccc(CC(N)=O)cc1 [(R)-(+)-Atenolol HCl] | inactive: -0.595

Compound | nuclei number (z-score)
Cc1ncc(-c2ccnc(Nc3ccc(S(C)(=O)=O)cc3)n2)n1C(C)C | inactive: -1.93
Cc1ccc2nc(CN(CCN(Cc3nc4ccc(C)cc4[nH]3)Cc3nc4ccc(C)cc4[nH]3)Cc3nc4ccc(C)cc4[nH]3)[nH]c2c1 | active: -5.2
C=C1CC[C@@H]2[C@](C)(CO)[C@H](O)CC[C@@]2(C)[C@@H]1C/C=C1/C(=O)OC[C@H]1O [Andrographolide] | inactive: 0.168
CC(=O)NS(=O)(=O)c1ccc(N)cc1 [Sulfacetamide Sodium] | inactive: 0.395
Cc1cn([C@H]2C=C[C@@H](CO)O2)c(=O)[nH]c1=O [Stavudine (d4T)] | inactive: 0.598
CC[C@H](C)[C@@H]1NC(=O)[C@H](Cc2ccc(O)cc2)NC(=O)[C@@H](N)CSSC[C@@H](C(=O)N2CCC[C@H]2C(=O)N[C@@H](CC(C)C)C(=O)NCC(N)=O)NC(=O)[C@H](CC(N)=O)NC(=O)[C@H](CCC(N)=O)NC1=O [Oxytocin (Syntocinon)] | inactive: 0.713
CN1C(CCl)Nc2cc(Cl)c(S(N)(=O)=O)cc2S1(=O)=O (stereo not given) [Methyclothiazide] | active: -5.64
C=CC1=C(C(=O)O)N2C(=O)[C@@H](NC(=O)/C(=N\O)c3csc(N)n3)[C@H]2SC1 [Cefdinir] | inactive: 1.54
OCc1ccccc1O[C@@H]1O[C@H](CO)[C@@H](O)[C@H](O)[C@H]1O [Salicin] | inactive: 0.411
COc1cccc2c1C(=O)c1c(O)c3c(c(O)c1C2=O)C[C@@](O)(C(C)=O)C[C@@H]3O[C@H]1C[C@H](N)[C@H](O)[C@H](C)O1 [Daunorubicin HCl] | active: -2.73
CNC(=O)c1cc(Oc2ccc(NC(=O)Nc3ccc(Cl)c(C(F)(F)F)c3)cc2)ccn1 [Sorafenib] | inactive: 4.36
CNC(=O)c1cc(Oc2ccc(NC(=O)Nc3ccc(Cl)c(C(F)(F)F)c3)cc2)ccn1 [Sorafenib Tosylate] | inactive: 0.865
CNC(=O)c1ccccc1Nc1cc(Nc2ccc(N3CCOCC3)cc2OC)ncc1C(F)(F)F | inactive: -0.815
CC/C(=C(\c1ccc(O)cc1)c1ccc(OCCNC)cc1)c1ccccc1 [Endoxifen HCl] | active: -3.41
CCn1cc(C(=O)O)c(=O)c2c(N)c(F)c(NC3CCCCC3)cc21 | inactive: 0.356
Cc1ccc(S(=O)(=O)Cc2nc(-c3ccc(C(=O)NCc4cccnc4)cc3)oc2C)cc1 | active: -4.94
CC(C)COc1ccc(CNC(=O)N(Cc2ccc(F)cc2)C2CCN(C)CC2)cc1 [Pimavanserin] | active: -6.42
CN(c1ccccc1CNc1nc(Nc2ccc3c(c2)CC(=O)N3)ncc1C(F)(F)F)S(C)(=O)=O | inactive: -0.752
O=c1oc2c(O)c(O)cc3c(=O)oc4c(O)c(O)cc1c4c23 [Ellagic acid] | inactive: 3.33
CC(C=CC(=O)NO)=CC(C)C(=O)c1ccc(N(C)C)cc1 (stereo not given) [Trichostatin A (TSA)] | active: -3.15
c1ccc2c(CC3=NCCN3)cccc2c1 [Naphazoline HCl] | inactive: -0.534
CC(=O)OCC(=O)[C@@]12OC(C)(C)O[C@@H]1C[C@H]1[C@@H]3C[C@H](F)C4=CC(=O)C=C[C@]4(C)[C@@]3(F)[C@@H](O)C[C@@]12C [Fluocinonide] | inactive: -0.205
